Data reported in article PMC3314968.
These are yes or no findings as the source states them, for the method shown. For part of these data: Binding seen in cells or lysates may run through a third protein. Some entries that bind do so weakly or less than the wild type. For part of these data: Where a sequence is shown, tags or fusion partners need not be part of it.

What was measured:
[1] = biological target: endogenous TSG101 from HEK293 cell lysate (human (endogenous in HEK293)) (UniProt Q99816); test: SEC; HEK293 cell lysate, endogenous proteins; elution close to the 440 kDa marker (Figure S1B)
GST-TSG101 (human) [2] = biological target: GST-TSG101 (human) (UniProt Q99816); test: pull-down; 293T cells transfected with GST-TSG101, Myc-VPS28, HA-VPS37A and HA-UBAP1 (WT or M1 to M4); glutathione-coated beads; western blot with anti-HA
GST-TSG101 (human) [3] = biological target: GST-TSG101 (human) (UniProt Q99816); test: pull-down; 293T cells transfected with GST-TSG101, Myc-VPS28, HA-VPS37B and HA-UBAP1 (WT or M1 to M4); glutathione-coated beads; western blot with anti-HA
[4] = biological target: One-Strep tagged TSG101 (OSHA-TSG101) (human) (UniProt Q99816); test: pull-down; lysate of cells stably expressing OSHA-TSG101 at endogenous levels; affinity purification on a Strep-Tactin matrix; western blot with anti-TSG101, anti-VPS37A and anti-UBAP1; empty vector (OSHA) cells as control
GST-TSG101 (human) [5] = biological target: GST-TSG101 (human) (UniProt Q99816); test: condition: only with HA-VPS37B cotransfected in place of HA-VPS37A; pull-down; 293T cells transfected with GST-TSG101, Myc-VPS28, HA-VPS37B and HA-UBAP1 (WT or M1 to M4); glutathione-coated beads; western blot with anti-HA

binding (GST-TSG101 (human) [2])	binding (GST-TSG101 (human) [3])	Binder	also measured
–	–	endogenous UBAP1 from HEK293 cell lysate (protein, UniProt Q9NZ09 1-502) MASKKLGADFHGTFSYLDDVPFKTGDKFKTPAKVGLPIGFSLPDCLQVVREVQYDFSLEKKTIEWAEEIKKIEEAEREAECKIAEAEAKVNSKSGPEGDSKMSFSKTHSTATMPPPINPILASLQHNSILTPTRVSSSATKQKVLSPPHIKADFNLADFECEEDPFDNLELKTIDEKEELRNILVGTTGPIMAQLLDNNLPRGGSGSVLQDEEVLASLERATLDFKPLHKPNGFITLPQLGNCEKMSLSSKVSLPPIPAVSNIKSLSFPKLDSDDSNQKTAKLASTFHSTSCLRNGTFQNSLKPSTQSSASELNGHHTLGLSALNLDSGTEMPALTSSQMPSLSVLSVCTEESSPPNTGPTVTPPNFSVSQVPNMPSCPQAYSELQMLSPSERQCVETVVNMGYSYECVLRAMKKKGENIEQILDYLFAHGQLCEKGFDPLLVEEALEMHQCSEEKMMEFLQLMSKFKEMGFELKDIKEVLLLHNNDQDNALEDLMARAGAS	binding [1]: binds
no binding	no binding	HA-UBAP1 mutant M1 (L17D18D19/AAA) (protein, UniProt Q9NZ09 1-502) MASKKLGADFHGTFSYAAAVPFKTGDKFKTPAKVGLPIGFSLPDCLQVVREVQYDFSLEKKTIEWAEEIKKIEEAEREAECKIAEAEAKVNSKSGPEGDSKMSFSKTHSTATMPPPINPILASLQHNSILTPTRVSSSATKQKVLSPPHIKADFNLADFECEEDPFDNLELKTIDEKEELRNILVGTTGPIMAQLLDNNLPRGGSGSVLQDEEVLASLERATLDFKPLHKPNGFITLPQLGNCEKMSLSSKVSLPPIPAVSNIKSLSFPKLDSDDSNQKTAKLASTFHSTSCLRNGTFQNSLKPSTQSSASELNGHHTLGLSALNLDSGTEMPALTSSQMPSLSVLSVCTEESSPPNTGPTVTPPNFSVSQVPNMPSCPQAYSELQMLSPSERQCVETVVNMGYSYECVLRAMKKKGENIEQILDYLFAHGQLCEKGFDPLLVEEALEMHQCSEEKMMEFLQLMSKFKEMGFELKDIKEVLLLHNNDQDNALEDLMARAGAS	–
–	–	endogenous UBAP1 of the OSHA-TSG101 cell line (protein, UniProt Q9NZ09 1-502) MASKKLGADFHGTFSYLDDVPFKTGDKFKTPAKVGLPIGFSLPDCLQVVREVQYDFSLEKKTIEWAEEIKKIEEAEREAECKIAEAEAKVNSKSGPEGDSKMSFSKTHSTATMPPPINPILASLQHNSILTPTRVSSSATKQKVLSPPHIKADFNLADFECEEDPFDNLELKTIDEKEELRNILVGTTGPIMAQLLDNNLPRGGSGSVLQDEEVLASLERATLDFKPLHKPNGFITLPQLGNCEKMSLSSKVSLPPIPAVSNIKSLSFPKLDSDDSNQKTAKLASTFHSTSCLRNGTFQNSLKPSTQSSASELNGHHTLGLSALNLDSGTEMPALTSSQMPSLSVLSVCTEESSPPNTGPTVTPPNFSVSQVPNMPSCPQAYSELQMLSPSERQCVETVVNMGYSYECVLRAMKKKGENIEQILDYLFAHGQLCEKGFDPLLVEEALEMHQCSEEKMMEFLQLMSKFKEMGFELKDIKEVLLLHNNDQDNALEDLMARAGAS	binding [4]: binds
no binding	no binding	HA-UBAP1 mutant M2 (V20P21F22/AAA) (protein, UniProt Q9NZ09 1-502) MASKKLGADFHGTFSYLDDAAAKTGDKFKTPAKVGLPIGFSLPDCLQVVREVQYDFSLEKKTIEWAEEIKKIEEAEREAECKIAEAEAKVNSKSGPEGDSKMSFSKTHSTATMPPPINPILASLQHNSILTPTRVSSSATKQKVLSPPHIKADFNLADFECEEDPFDNLELKTIDEKEELRNILVGTTGPIMAQLLDNNLPRGGSGSVLQDEEVLASLERATLDFKPLHKPNGFITLPQLGNCEKMSLSSKVSLPPIPAVSNIKSLSFPKLDSDDSNQKTAKLASTFHSTSCLRNGTFQNSLKPSTQSSASELNGHHTLGLSALNLDSGTEMPALTSSQMPSLSVLSVCTEESSPPNTGPTVTPPNFSVSQVPNMPSCPQAYSELQMLSPSERQCVETVVNMGYSYECVLRAMKKKGENIEQILDYLFAHGQLCEKGFDPLLVEEALEMHQCSEEKMMEFLQLMSKFKEMGFELKDIKEVLLLHNNDQDNALEDLMARAGAS	–
binds	binds	HA-UBAP1 wild-type (WT) (protein, UniProt Q9NZ09 1-502) MASKKLGADFHGTFSYLDDVPFKTGDKFKTPAKVGLPIGFSLPDCLQVVREVQYDFSLEKKTIEWAEEIKKIEEAEREAECKIAEAEAKVNSKSGPEGDSKMSFSKTHSTATMPPPINPILASLQHNSILTPTRVSSSATKQKVLSPPHIKADFNLADFECEEDPFDNLELKTIDEKEELRNILVGTTGPIMAQLLDNNLPRGGSGSVLQDEEVLASLERATLDFKPLHKPNGFITLPQLGNCEKMSLSSKVSLPPIPAVSNIKSLSFPKLDSDDSNQKTAKLASTFHSTSCLRNGTFQNSLKPSTQSSASELNGHHTLGLSALNLDSGTEMPALTSSQMPSLSVLSVCTEESSPPNTGPTVTPPNFSVSQVPNMPSCPQAYSELQMLSPSERQCVETVVNMGYSYECVLRAMKKKGENIEQILDYLFAHGQLCEKGFDPLLVEEALEMHQCSEEKMMEFLQLMSKFKEMGFELKDIKEVLLLHNNDQDNALEDLMARAGAS	–
binds	binds	HA-UBAP1 mutant M3 (F28A) (protein, UniProt Q9NZ09 1-502) MASKKLGADFHGTFSYLDDVPFKTGDKAKTPAKVGLPIGFSLPDCLQVVREVQYDFSLEKKTIEWAEEIKKIEEAEREAECKIAEAEAKVNSKSGPEGDSKMSFSKTHSTATMPPPINPILASLQHNSILTPTRVSSSATKQKVLSPPHIKADFNLADFECEEDPFDNLELKTIDEKEELRNILVGTTGPIMAQLLDNNLPRGGSGSVLQDEEVLASLERATLDFKPLHKPNGFITLPQLGNCEKMSLSSKVSLPPIPAVSNIKSLSFPKLDSDDSNQKTAKLASTFHSTSCLRNGTFQNSLKPSTQSSASELNGHHTLGLSALNLDSGTEMPALTSSQMPSLSVLSVCTEESSPPNTGPTVTPPNFSVSQVPNMPSCPQAYSELQMLSPSERQCVETVVNMGYSYECVLRAMKKKGENIEQILDYLFAHGQLCEKGFDPLLVEEALEMHQCSEEKMMEFLQLMSKFKEMGFELKDIKEVLLLHNNDQDNALEDLMARAGAS	–
binds	–	HA-UBAP1 mutant M4 (E59A) (protein, UniProt Q9NZ09 1-502) MASKKLGADFHGTFSYLDDVPFKTGDKFKTPAKVGLPIGFSLPDCLQVVREVQYDFSLAKKTIEWAEEIKKIEEAEREAECKIAEAEAKVNSKSGPEGDSKMSFSKTHSTATMPPPINPILASLQHNSILTPTRVSSSATKQKVLSPPHIKADFNLADFECEEDPFDNLELKTIDEKEELRNILVGTTGPIMAQLLDNNLPRGGSGSVLQDEEVLASLERATLDFKPLHKPNGFITLPQLGNCEKMSLSSKVSLPPIPAVSNIKSLSFPKLDSDDSNQKTAKLASTFHSTSCLRNGTFQNSLKPSTQSSASELNGHHTLGLSALNLDSGTEMPALTSSQMPSLSVLSVCTEESSPPNTGPTVTPPNFSVSQVPNMPSCPQAYSELQMLSPSERQCVETVVNMGYSYECVLRAMKKKGENIEQILDYLFAHGQLCEKGFDPLLVEEALEMHQCSEEKMMEFLQLMSKFKEMGFELKDIKEVLLLHNNDQDNALEDLMARAGAS	binding (GST-TSG101 (human) [5]): no binding
